Data reported in PubChem BioAssay AID588855 (National Center for Advancing Translational Sciences (NCATS), 2011).
Screen size: about 410,000 compounds; about 5,000 (1.2%) were called active. The inconclusive results got no clear call from the source; some entries with a clear call stand among them for comparison. The call rests on the fitted dose curve; in most records, active means well fitted inhibition curve with a large enough effect; inconclusive means small, poorly fitted or top-dose-only effect; inactive means no such curve, though single readings can be large or run the other way. A potency beside an inconclusive call is a rough fit, not a confirmed value.

assay: qHTS for Inhibitors of TGF-b; settings: HepG2 CAGA-GFP TGF-b/SMAD3 reporter, GFP fluorescence, 18 h, TGF-beta stimulated, 500 pg/mL final; series mostly up to 46.1 µM; activity, negative = inhibition: at the top concentration; further: nearly all actives have a fitted effect of over 65% in size
Outline: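 Read-out: total well GFP (ex488/em500-530) summed from mean per-cell fluorescence. Cells: HEPG2 CAGA-GFP, 1% FBS DMEM, 18 h at 37 degrees C with 500 pg/mL final TGF-beta. Unstimulated wells served as the full-inhibition control; stimulated DMSO wells = 0%.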
On the % scale 0 is the no-effect control and ±100 the full control effect; potency means the concentration at half of the fitted maximal effect; tags describe the fitted curve by direction and shape.

Row | Structure (SMILES) | activity, negative = inhibition | Potency
1 | Cc1cccc(N(C(=O)CCC(=O)Nc2cc(C)on2)C(C(=O)NC2CCCC2)c2ccc(C)o2)c1 (stereo unspecified) | inactive: -18.1% | 
2 | CCSc1nnc(NC(=O)CCNS(=O)(=O)c2cc(Br)cnc2N)s1 |  | inconclusive: 11.2 µM [inhibitor, single point]
3 | Cc1cccc(C(=O)n2nc(-c3cccnc3)nc2NCc2ccccc2)c1 | inactive: -2.45% | 
4 | COc1cccc(C(=O)Nc2nc(-c3ccc4c(c3)OCO4)cs2)c1 |  | inconclusive: 17.8 µM [inhibitor, single point]
5 | COCCNC(=O)C1(C)CCCN(C(=O)c2cccnc2SC)C1 (stereo unspecified) | inactive: -6.89% | 
6 | Cc1cc(/C=C2\SC(=S)N(C)C2=O)c(C)n1-c1ccc(O)cc1 |  | inconclusive: 12.6 µM [inhibitor, single point]
7 | CCc1nn(CC(=O)N(C)Cc2ccccc2)c(=O)c2cc3sccc3n12 |  | inconclusive: 10 µM [inhibitor, partial curve, poor fit]
8 | CCc1nn(C(CC)C(=O)NCCCN2CC(C)CC(C)C2)c(=O)c2cc3oc(C)cc3n12 (stereo unspecified) | inactive: -1.91% | 
9 | COc1ccc(CC(=O)Nc2cccc(/C(C)=N/NC(=O)c3cccc([N+](=O)[O-])c3)c2)cc1 | inactive: 6.02% | 
10 | COc1cc(-c2nnc(COC(=O)C3c4ccccc4Oc4ccccc43)o2)cc(OC)c1OC |  | inconclusive: 35.5 µM [inhibitor, single point]
11 | O=S(=O)(NCC(c1ccco1)S(=O)(=O)c1cccs1)c1ccc(Cl)cc1 (stereo unspecified) |  | inconclusive: 12.6 µM [inhibitor, partial curve, poor fit]
12 | CC(C)(C)c1cc(CN2CCN(CCO)CC2)cc(C(C)(C)C)c1O |  | inconclusive: 17.8 µM [inhibitor, single point]
13 | Cc1ccc(COC(=O)c2[nH]c3c(c2C)C(=O)CC(c2ccc(N(C)C)cc2)C3)cc1 (stereo unspecified) | inactive: -3.81% | 
14 | COc1ccc2nc(SC)c(C#N)cc2c1 |  | inconclusive: 0.562 µM [inhibitor, full curve, poor fit]
15 | CCS(=O)(=O)c1ncc(Cl)c(C(=O)Nc2ccccc2)n1 |  | active: 10 µM
16 | Cc1cccc(Cc2cnc(NC(=O)c3ccc(C)o3)s2)c1 | inactive: 6.16% | 
17 | COc1ccc(Cl)cc1NC(=O)NCC1CCN(Cc2cc(C)ccc2C)CC1 |  | inconclusive: 22.4 µM [inhibitor, single point]
18 | CC1CCCN(CC(=O)Nc2ccc(S(=O)(=O)NC3CCCCC3)cc2)C1 (stereo unspecified) |  | inconclusive: 31.6 µM [inhibitor, single point]
19 | CCCCN(CC)CCNC(=O)C1CCCN(c2ncnc3onc(C)c23)C1 (stereo unspecified) | inactive: -10.1% | 
20 | CCOc1ccccc1NC(=O)C1CCN(S(=O)(=O)c2ccc3c(c2)CCCN3C(C)=O)CC1 |  | inconclusive: 1.26 µM [inhibitor, full curve, poor fit]
21 | COc1ccc(N2CCN(C(CNC(=O)C(=O)NCCCn3ccnc3)c3ccco3)CC2)cc1 (stereo unspecified) | inactive: -6.45% | 
22 | Cc1cccc(Cn2cnc3ccccc32)c1 | inactive: -9.92% | 
23 | CCc1cccc(C)c1NC(=S)NCCc1c(C)[nH]c2ccc(C)cc12 |  | active: 12.6 µM
24 | O=C(Nc1ccc([N+](=O)[O-])cc1)C(c1ccccc1)c1ccccc1 |  | inconclusive: 35.5 µM [inhibitor, single point]

Row | Structure (SMILES) | activity, negative = inhibition | Potency
25 | Cn1c(SCC(=O)Nc2nccs2)nnc1-c1ccccn1 | inactive: -21.1% | 
26 | CC(C)c1ccc(CN2CC(C(=O)Nc3ccccc3)CC2=O)cc1 (stereo unspecified) |  | inconclusive: 35.5 µM [inhibitor, single point]
27 | COC(=O)c1ccc2nc(-c3ccco3)c(Cc3ccc(C)cc3)n2c1 |  | inconclusive: 12.6 µM [inhibitor, single point]
28 | C=CC[C@H](CC(=O)N(CCO)Cc1ccccc1)C(=O)N[C@H](COC(=O)[C@@H](CC=C)CC(=O)OC(C)(C)C)c1ccccc1 |  | inconclusive: 8.91 µM [inhibitor, partial curve, poor fit]
29 | OCCCn1c(CCNc2nc(-c3ccc(F)cc3)cs2)nc2cc(C(F)(F)F)ccc21 |  | inconclusive: 35.5 µM [inhibitor, single point]
30 | Cc1ccc(N(CC(=O)Nc2cc(C)ccc2C)S(=O)(=O)c2c(C)noc2C)cc1 |  | inconclusive: 35.5 µM [inhibitor, single point]
31 | COc1ccccc1-n1c(SCC(=O)N(C)C2CCS(=O)(=O)C2)nc2ccccc2c1=O (stereo unspecified) |  | inconclusive: 22.4 µM [inhibitor, single point]
32 | O=C(N/N=C/c1ccc(-c2cccc(C(F)(F)F)c2)o1)c1ccccc1Br |  | active: 20 µM
33 | CN(C)S(=O)(=O)c1cccc(NC(=O)c2ccccc2OCc2ccc(F)cc2)c1 | inactive: 10.2% | 
34 | Cc1ccc(NC(=O)c2cc(S(=O)(=O)NC3CCCCC3)ccc2F)cc1Cl |  | active: 10 µM
35 | O=C(CSc1ccc2c(c1)OCCO2)N1CCN(c2ccccc2O)CC1 |  | inconclusive: 25.1 µM [inhibitor, single point]
36 | COc1ccc(NC(C)=O)cc1CNC(=O)CN1CCOCC1 | inactive: -2.81% | 
37 | CC(=O)C(C(c1ccccc1)N1CCCc2ccccc21)N1CCOCC1 (stereo unspecified) | inactive: 5.24% | 
38 | Cc1ccc2c(c1)-c1onc(C(=O)N3CCN(c4cc(Cl)ccc4C)CC3)c1CO2 | inactive: 1.02% | 
39 | CC1Cc2ccccc2N1S(=O)(=O)c1nnc(NC(=O)c2cccc(F)c2)s1 (stereo unspecified) |  | inconclusive: 15.8 µM [inhibitor, partial curve, poor fit]
40 | Oc1ccc(C[C@@H]2CNCCN2CCCCC2CCCCC2)cc1 |  | inconclusive: 31.6 µM [inhibitor, single point]
41 | CCC(=O)N1CCc2cc(CNC(=O)Cc3ccc(F)cc3)ccc21 | inactive: 0.427% | 
42 | Cc1ccc(NC(=O)CSc2nc(=O)n(Cc3ccco3)c3c2CCC3)cc1F |  | inconclusive: 15.8 µM [inhibitor, partial curve, poor fit]
43 | Cc1cccc(NC(=O)COC(=O)c2ccccc2-c2nc3ccccc3s2)c1C |  | inconclusive: 35.5 µM [inhibitor, single point]
44 | COC(=O)c1ccc(C[n+]2ccccc2)cc1 | inactive: 17% | 
45 | Cn1c(-c2ccc(Br)cc2)cnc1NCc1cccnc1 | inactive: 0.732% | 
46 | CC(=O)OC(C(=O)Nc1ccccc1)C(C)S(=O)(=O)c1ccccc1 (stereo unspecified) |  | inconclusive: 3.16 µM [inhibitor, full curve, poor fit]
47 | O=C(Nc1sc2c(c1C(=O)Nc1cccc(Cl)c1)CCCC2)c1cccs1 |  | inconclusive: 2.82 µM [inhibitor, full curve, poor fit]
48 | Cn1c(=O)c(=O)n(C)c2cc(N3CCCC3)c(NC(=O)c3ccccc3F)cc21 |  | inconclusive: 35.5 µM [inhibitor, single point]

Row | Structure (SMILES) | activity, negative = inhibition | Potency
49 | CN(CC(=O)N1CCCc2c1c(=O)oc1ccc(O)cc21)Cc1ccccc1 | inactive: -3.14% | 
50 | CCCCCCC(=O)N1C/C=C\C(c2ccc(OC)cc2)N(Cc2ccc(F)cc2)C(=O)C1Cc1ccccc1 (stereo unspecified) | inactive: -18.1% | 
51 | N#CCCn1cc(C(=O)O)c(-c2cc3ccccc3o2)n1 | inactive: -7.89% | 
52 | Cc1ccc(O)c(C(=O)CC(=O)c2ccc(Cl)cc2)c1 |  | inconclusive: 22.4 µM [inhibitor, single point]
53 | OC(CON=C1c2ccccc2-c2ccccc21)CN1CCNCC1 (stereo unspecified) |  | inconclusive: 35.5 µM [inhibitor, single point]
54 | O=C(Oc1ccc2ccccc2c1Cl)N1CCCCCC1 | inactive: -8.08% | 
55 | O=C(NCCCn1ccnc1)C1CCN(S(=O)(=O)c2ccc(F)cc2)CC1 | inactive: 0.897% | 
56 | ClCC(CNCc1ccccc1)c1ccccc1 (stereo unspecified) | inactive: -2.67% | 
57 | COc1ccc(NC(=O)Nc2nnc(-c3ccncc3)s2)cc1 |  | inconclusive: 11.2 µM [inhibitor, partial curve]
58 | CCCCN1C[C@H](C)[C@@H](CC(=O)Nc2ccc(OC)cc2)C1=O | inactive: 8.87% | 
59 | C[C@H]1CN([C@@H](C)CO)S(=O)(=O)c2ccc(C#CC3CC3)cc2O[C@H]1CN(C)C(=O)c1cccnc1 | inactive: -0.334% | 
60 | Cn1c(=O)oc2cc(S(=O)(=O)N3CCCC(C(=O)N4CCc5ccccc5C4)C3)ccc21 (stereo unspecified) |  | inconclusive: 35.5 µM [inhibitor, single point]
61 | O=C(c1sc2ccccc2c1Cl)N1CCN(c2ncccn2)CC1 |  | inconclusive: 35.5 µM [inhibitor, partial curve, poor fit]
62 | Cc1cccc(Cn2c(COc3ccc(Cl)cc3)nc3ccccc32)c1 |  | inconclusive: 15.8 µM [inhibitor, single point]
63 | Cc1ccc(CCNC(=O)c2cc3n(n2)CCCN(Cc2ccc(C)cc2)C3=O)cc1 | inactive: -21.1% | 
64 | COc1cccc(CN2CCC(N(CCc3ccccc3)Cc3ccccc3)CC2)c1OC |  | inconclusive: 31.6 µM [inhibitor, single point]
65 | CC1(C)OC(=O)C2=C(C[C@@H](C3CCCCC3)O[C@H]2c2ccc(F)cc2)O1 |  | inconclusive: 17.8 µM [inhibitor, single point]
66 | COc1cccc(CNc2nc(NC(C)C)nc3ccsc23)c1OC |  | inconclusive: 31.6 µM [inhibitor, single point]
67 | Cc1cc(C)cc(N(C(C)C(=O)NCCC2=CCCCC2)S(C)(=O)=O)c1 (stereo unspecified) |  | inconclusive: 14.1 µM [inhibitor, single point]
68 | O=C(c1ccccc1Cl)N1CCCCC1CCN1CCOCC1 (stereo unspecified) | inactive: 13.7% | 
69 | CCN1C(=O)c2n[nH]c(C(=O)OC)c2C1=O |  | inconclusive: 6.31 µM [inhibitor, single point]
70 | COc1ccc(NC(=O)COC(=O)/C=C/C(=O)OCC(=O)Nc2ccc(OC)c(Cl)c2)cc1Cl |  | inconclusive: 17.8 µM [inhibitor, single point]
71 | Cc1ccc(-c2nnc(Nc3ccc(F)cc3)c3ccccc23)cc1S(=O)(=O)N1CCN(C)CC1 |  | inconclusive: 11.2 µM [inhibitor, partial curve]
